# Data published in PubChem BioAssay AID1346428 (National Center for Advancing Translational Sciences (NCATS), 2018).
# Several values for one entry are separate records, joined by “and”; a condition that tells them apart may be missing. Equal values may be shown once. The whole screen tested about 48,000 compounds, of which about 1,200 (2.5%) were called active. Roughly 2% stayed inconclusive and do not appear here.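 The calls were made as follows: active = activation of at least 60% and not above a set upper limit (about 1 call in 100 departs from these limits); inconclusive = activation of 40% to 60%, or above that upper limit; inactive = activation under 40%.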 The list shows a part of the results.
# Target: Probable G-protein coupled receptor 32 (Homo sapiens) (UniProt O75388)
# Assay: qHTS for Agonists of Human Resolvin D1 Receptor DRV1; also: 0% is about no effect
# Conditions: CHO-K1 GPR32 beta-arrestin PathHunter luminescence, 90 min; at 76.9 µM; stronger effect = higher value; zero percent set by DMSO-only wells
# Method in brief: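 GPR32 activation in stably transfected CHO-K1 cells, detected as beta-arrestin recruitment by enzyme-fragment complementation. Compound exposure: 90 min, 37 °C.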
# Chain of UniProt O75388 (O75388 whole entry, looked up): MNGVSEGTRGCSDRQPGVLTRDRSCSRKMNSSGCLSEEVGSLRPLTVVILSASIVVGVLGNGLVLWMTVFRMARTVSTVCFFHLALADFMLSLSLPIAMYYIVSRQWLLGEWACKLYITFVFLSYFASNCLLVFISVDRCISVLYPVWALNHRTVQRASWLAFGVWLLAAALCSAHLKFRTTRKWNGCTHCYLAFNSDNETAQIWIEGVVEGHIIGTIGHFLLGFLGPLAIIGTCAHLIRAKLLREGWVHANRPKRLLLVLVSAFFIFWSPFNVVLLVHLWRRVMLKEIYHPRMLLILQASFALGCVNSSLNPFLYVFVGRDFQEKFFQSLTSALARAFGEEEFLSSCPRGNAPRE
row,SMILES,activation
1,Cc1nn(C)c2c1c(C(F)(F)F)cc(=O)n2CC(=O)N1CCCCC1,inactive: 25.6%
2,CCOC(=O)c1c(NC(=O)c2ccc(Br)cc2)sc2c1CCCC2,inactive: -3.91%
3,Cc1ccc(Cl)cc1NC(=O)N1CCC(CN2CCCCCC2)CC1,inactive: -10.1%
4,Cc1ccc(NC(=O)CSc2ccc3nnc(CCNS(=O)(=O)c4ccccc4)n3n2)cc1Cl,inactive: 1.6%
5,Cc1ccccc1NC(=O)c1cccc2c(=O)c3c([nH]c12)CCCC3,inactive: 31.1%
6,Cc1ccc2cc(CN(C)C(=O)c3cccc(Cl)c3)c(=O)[nH]c2c1,inactive: -5.86%
7,Cc1ccc([N+](=O)[O-])cc1S(=O)(=O)N1CCn2cccc2C1c1ccccc1 (stereo not given),inactive: -5.33%
8,CCOc1ccc(-n2nc(CO)c(C(=O)NCc3cccs3)n2)cc1,inactive: -3.31%
9,CCn1cc(C(=O)N2CCN(c3cc(C)ccc3C)CC2)c(=O)c2cc(S(=O)(=O)N3CCCCC3)ccc21,inactive: -8.07%
10,Cc1nc(SC(C)C(=O)Nc2ccccc2Cl)cc(-c2ccccc2)n1 (stereo not given),inactive: -20.2%
11,COc1ccc(N2CCN(Cc3cccn3-c3nnc(N4CCN(C5CCCCC5)CC4)s3)CC2)cc1,inactive: 4.45%
12,CC(Oc1ccc(Br)cc1)C(=O)Nc1ncn[nH]1 (stereo not given),inactive: -7.11%
13,Cc1ccc(C)c(NC(=O)C2CCCN(S(=O)(=O)c3cn(C)cn3)C2)c1 (stereo not given),inactive: -2.41%
14,CC(N)C(=O)OC(C)(C)Cc1ccc(Cl)cc1 (stereo not given),inactive: -46% and inactive: -14.6%
15,Cc1ccc2nc(-c3ccc(Cl)c(NC(=O)COc4ccc(C(C)C)cc4)c3)oc2c1,inactive: 3.19%
16,COc1ccc(NC(=O)CCc2nnc3n(Cc4ccccc4Cl)c(=O)c4ccccc4n23)cc1,inactive: 2.3%
17,Cc1ccc(N2C(=O)N(Cc3cc(=O)n4ccccc4n3)c3ccccc3S2(=O)=O)cc1Cl,inactive: -9.7%
18,CCOc1ccccc1CNC(=O)Cn1cc2c(n1)-c1c(oc(C(=O)N3CCCC3)c1C)CC2,inactive: -29.8%
19,CCNc1cc(N2CCN(C3CCCCC3)CC2)c2noc3c2c1C(=O)c1ccccc1-3,inactive: 10.3%
20,Cc1ccc(S(=O)(=O)N2CCN(Cc3nc4ccc(C)cc4o3)CC2)cc1,inactive: -2.24%
21,O=C(Cn1cc(S(=O)(=O)c2ccccc2)c(=O)c2cc3c(cc21)OCO3)Nc1ccc(Cl)cc1,inactive: -16.2%
22,O=C(CS(=O)(=O)c1cccc2nsnc12)N1CCN(c2cccc(C(F)(F)F)c2)CC1,active: 88.5%
23,COc1ccc(Br)cc1CNC(=O)CCSCc1ccc(C)cc1,inactive: -29.2%
24,CSc1ccc(CCNC(=O)c2ccc(-c3nc(COc4ccc(C)cc4)c(C)o3)cc2)cc1,inactive: 22.6%
25,CCOC(=O)CSc1nc2ccccc2c(=O)n1-c1cccc(C)c1,inactive: -18.3%
26,COc1ccc(C(=O)Nc2ccccc2SCc2cc(=O)c3cccc(C)c3[nH]2)cc1,inactive: 8.23%
27,COC(=O)c1ccccc1NC(=O)C1=C(C)C(=O)OC12CCCCCC2,inactive: -31.9%
28,O=C(O)Cc1ccc(NC2(c3ccccc3)C(=O)c3ccccc3C2=O)cc1,inactive: -2.61%

row,SMILES,activation
1,COc1ccc(S(=O)(=O)NCCS(=O)(=O)N2CCN(c3ccccc3)CC2)cc1C,inactive: 11.6%
2,O=C(O)Cc1sc(Nc2ccccc2)nc1-c1ccccc1,inactive: 7.25%
3,CCOC(=O)c1ccc(-n2c(-c3ccc(C)cc3)c(C)n3c4c(=O)n(C)c(=O)n(C)c4nc23)cc1,inactive: 5.25%
4,COc1ccc(-c2cc(-c3ccc4c(c3)NC(=O)CO4)nc3c2COc2ccc(F)cc2-3)cc1,inactive: 17.1%
5,CCOc1ccc(N2C(=O)c3n[nH]c(-c4cccs4)c3C2c2cccc(F)c2)cc1 (stereo not given),inactive: 41.6%
6,CCc1nonc1NC(=O)c1oc2ccc(C)cc2c1C,inactive: 2.59%
7,CN(C)c1ccc(-c2nc(-c3ccco3)no2)cc1[N+](=O)[O-],inactive: -26.5%
8,CCc1ccc(NC(=O)c2ccc(F)c(S(=O)(=O)NCc3ccc(Cl)c(Cl)c3)c2)cc1,inactive: 20.4%
9,Cc1ccc(Cl)cc1-n1ncc2c(NCCCc3ccccc3)ncnc21,active: 78.4%
10,Cc1c(Nc2nc3ccccc3n3c(C)nnc23)cccc1C(=O)O,inactive: -3.76%
11,CCOc1ccccc1CNC(=O)c1ccc2c(c1)nc1n2CCCCC1,inactive: -9.67%
12,CCN(CC)S(=O)(=O)c1ccc2c(c1)N(CC(=O)N1CCN(c3cccc(OC)c3)CC1)C(=O)CO2,inactive: -19.6%
13,Fc1ccc(-n2ncc3c(N4CCCCCC4)ncnc32)cc1,inactive: 23.5%
14,Cc1ccc(NC(=O)N2CC3CCCN3c3ccccc32)c(C)c1 (stereo not given),inactive: 6.47%
15,COc1ccc(NC(=O)c2ccco2)cc1NC(=O)COc1ccc(Cl)c(C)c1,inactive: 34.6%
16,Cc1ccc(-c2cc(C(=O)N(Cc3ccc(C(C)(C)C)cc3)Cc3ccco3)no2)cc1,inactive: -9.69%
17,CCc1cccc(C)c1NC(=O)CCn1c(=O)c2cccn2c2ccccc21,inactive: -17.5%
18,CC(C)C(=O)NCC1(N(C)C)CCCCC1,inactive: 5.55%
19,Cc1cc(N2CCN(c3cccc(C(F)(F)F)c3)CC2)n2nc(-c3ccccc3)nc2n1,inactive: -14.2%
20,CCOc1ccc(C(=O)Nc2c(C(=O)N3CCN(c4ccccc4F)CC3)oc3ccccc23)cc1,inactive: 6.06%
21,Cc1ccc(NS(=O)(=O)c2cc3[nH]c(=O)c(=O)[nH]c3cc2C)cc1Cl,inactive: -7.63%
22,CCCn1c(=N)n(CC(O)COc2ccccc2OC)c2ccccc21 (stereo not given),inactive: -5.52%
23,Cc1ccc(N2CC(NC(=O)CCc3ccccc3)CC2=O)cc1C (stereo not given),inactive: -11.1%
24,Cc1cccc(CCNC(=O)c2ccc(CSCc3cccc(Cl)c3)o2)c1,inactive: -25.2%
25,Cc1cccc(N(Cc2cc3ccccc3[nH]c2=O)C(=O)c2cccc(Cl)c2)c1,inactive: -21.7%
26,Cc1ccc(S(=O)(=O)c2[nH]c(-c3ccccc3)nc2SCCC(=O)O)cc1,inactive: 15.8%
27,CCOc1ccc(NC(=O)c2c(Nc3ccccc3C)sc(C(=O)c3ccc(Cl)cc3)c2N)cc1,inactive: -80.4%
